ChEMBL document CHEMBL4888484, “Replenishing the malaria drug discovery pipeline: Screening and hit evaluation of the MMV Hit Generation Library 1 (HGL1) against asexual blood stage Plasmodium falciparum ,using a nano luciferase reporter read-out” (2022)
Out of some 4,800 compounds screened, about 420 (8.8%) showed an effect of 50% or more. The list shows a part of the results.

What follows are compounds tested on Plasmodium falciparum (assay: Confirmatory screen in NF54 nanoGlo assay, in single point, at 2uM, 72h). Conditions: timepoint 72 hour.
Type: functional, Erythrocyte
In the case of `c1ccc(-c2c[nH]nc2N2CCOCC2)cc1`, the “% Inhibition” value is reported as 15%.
For `Cc1ccc2nc3c(c(N)c2c1)CCCCN3C`, the “% Inhibition” value was -10%.
In the case of `NC(=O)CCc1ccc(S(=O)(=O)Cl)cc1`, the “% Inhibition” value is reported as 1%.
In the case of `COc1cc(CN(CC(N)=O)C(C)C)ccc1C`, the “% Inhibition” value is reported as 3%.
With `Cc1cc(C(=O)N[C@@H](C)c2nnc3n2CCCCC3)c(C)s1` the “% Inhibition” value was -4%.
For `C=CCNC(=O)N1CCC(c2nc(C)ccc2C(=O)N2CCCC2)CC1`, the “% Inhibition” value was -2%.
`CCc1cnccc1[C@H](C)NC(=O)CN1C(=O)Cc2ccccc21` was tested, and the “% Inhibition” value was 3%.
With `N#Cc1ccc(NC(=O)[C@](F)(OC(F)(F)C(F)(F)C(F)(F)F)C(F)(F)F)cc1` the “% Inhibition” value was -6%.
`CCN(C(=O)CN1C(=O)C(c2ccccc2)=NC12CCC(C)CC2)c1ccccc1` (stereo unspecified) was tested, and the “% Inhibition” value was -9%.
In the case of `O=C(Cc1cccc2ccccc12)NC(C1CC1)C1CC1`, the “% Inhibition” value is reported as -14%.
`COc1ccccc1CNC(=O)c1cn(CC2(O)CCN(Cc3ccccc3)CC2)nn1` was tested, and the “% Inhibition” value was -3%.
For `COc1ccc(CNC(=O)c2cc(C(=O)C3CC3)c[nH]2)cc1`, the “% Inhibition” value was -17%.
With `Cc1cc([C@@H](C)C(=O)NC2(C(=O)O)CCCCC2)c(C)o1` the “% Inhibition” value was -15%.
With `Clc1ccccc1CNCC#Cc1ccccc1` the “% Inhibition” value was 5%.
For `Cc1ccc(C)n1-c1ccc(Cl)c(C(=O)N[C@H]2CCN(CC(F)(F)F)C2)c1`, the “% Inhibition” value was -4%.
For `COc1cc(Cl)cc2c1OC=CC(C(=O)NC(c1ccccc1)c1ccccc1)=C2`, the “% Inhibition” value was 1%.
For `Cn1cccc1C(=O)NC1CCN(c2ccc(Cl)c(C#N)n2)CC1`, the “% Inhibition” value was -5%.
For `Oc1c([C@@H](c2ccccn2)N2CCCC2)ccc2cccnc12`, the “% Inhibition” value was 46%.
With `Nc1c(-c2ccccc2)nsc1C(=O)NCc1ccc(F)cc1` the “% Inhibition” value was -2%.
`c1ccc(-c2cn3c(n2)c(-c2ccc4ccccc4n2)cc2ccccc23)cc1` was tested, and the “% Inhibition” value was 12%.
With `Cc1nnc(NC(=O)c2cc(N3CCCC3)ncn2)s1` the “% Inhibition” value was 14%.
In the case of `Cc1noc(C)c1NC(=O)c1cc(-c2cccs2)nc2c1c(C)nn2C`, the “% Inhibition” value is reported as 26%.
For `CCOc1cccc(NCc2c(N)ncnc2OC)c1`, the “% Inhibition” value was 7%.
In the case of `CC1=C(C(=O)N2CCN(C)CC2)[C@H](c2ccccc2C)n2ncnc2N1`, the “% Inhibition” value is reported as -3%.
In the case of `O=C1[C@@H]2CCCN2c2ccc(S(=O)(=O)N3CCOCC3)cc2N1Cc1cccc(C(F)(F)F)c1`, the “% Inhibition” value is reported as -6%.
`CCn1cc(Cl)c(-c2nnc(-c3cccs3)o2)n1` was tested, and the “% Inhibition” value was -9%.
For `CCN(CC(C)(C)O)C(=O)C1CCCCCC1`, the “% Inhibition” value was -9%.
With `CCN(CC)c1ncnc(N(C)Cc2ccccc2)c1N` the “% Inhibition” value was 2%.
For `CN(C(=O)c1ccccc1Br)C(C)(C)C`, the “% Inhibition” value was -10%.
In the case of `COc1ccccc1Cn1cnc2c1c(=O)n(C1CCCCC1)c(=O)n2-c1ccccc1Cl`, the “% Inhibition” value is reported as 83%.
With `COCCO[C@H]1CCOC2(CCN(C(=O)Cc3cccc(C)c3)CC2)C1` the “% Inhibition” value was 5%.
With `O=C1N(c2ccccc2)CN(C2CCCCC2)CN1c1nc(-c2ccccc2)cs1` the “% Inhibition” value was -11%.
With `[2H]C1([2H])NC([2H])([2H])C([2H])([2H])N(S(=O)(=O)c2ccc(OCC)c(-c3nc(=O)c4c([nH]3)c(CCC)nn4C)c2)C1([2H])[2H]` the “% Inhibition” value was -10%.
In the case of `O=C(CNc1cc(F)c(F)cc1F)NC(=O)NCC(F)(F)F`, the “% Inhibition” value is reported as -6%.
With `COC(=O)c1cccc(C#Cc2cccc(NC(=O)c3cnc(C)cn3)c2)c1` the “% Inhibition” value was -19%.
`Cc1cc(C)c(S(=O)(=O)n2ccc(-c3cccc(OCc4ccc(Cl)cc4Cl)c3)n2)c(C)c1` was tested, and the “% Inhibition” value was -17%.
In the case of `O=c1cc2c(nn1Cc1ccccc1Cl)-c1ccccc1CC2`, the “% Inhibition” value is reported as -8%.
In the case of `Cc1ccc(S(=O)(=O)N2CCC[C@H](C(=O)NCc3cccc(NC(=O)N4CCCC4)c3)C2)s1`, the “% Inhibition” value is reported as -4%.
`CCOc1ccc(C2C(C(=O)O)CCC(=O)N2C2CCCCC2)cc1` (stereo unspecified) was tested, and the “% Inhibition” value was -3%.
`Cc1cc2nccc([C@H](C)Oc3ccc(-c4ccccc4)c(F)c3)n2n1` was tested, and the “% Inhibition” value was 5%.
For `Cc1cccc(N2CCN(c3ncc4c(=O)n(-c5ccc6c(c5)OCO6)c(=O)[nH]c4n3)CC2)c1`, the “% Inhibition” value was -1%.
In the case of `Cc1ccc(N2CCN(S(=O)(=O)c3ccccc3)[C@@H](C)C2=O)cc1F`, the “% Inhibition” value is reported as -5%.
`COc1cc(=O)c(C(=O)NCCN2CCCCC2)nn1-c1ccc(F)cc1` was tested, and the “% Inhibition” value was -5%.
In the case of `O=C(c1cc2ccccc2[nH]1)N1CCc2sc(Cl)cc2C1`, the “% Inhibition” value is reported as 38%.
With `O=C(Nc1ccc(NC2CCOCC2)cc1)c1cc(F)c(O)c(F)c1` the “% Inhibition” value was -13%.
With `Fc1ccc(COc2cccc(CNCCN3CCOCC3)c2)cc1` the “% Inhibition” value was -8%.
With `CCc1ccc(C(=O)N2CC[C@H](CC(=O)NCc3ccccc3)C2)cc1` the “% Inhibition” value was -5%.
In the case of `Clc1cc(CN2CC[C@@]3(CCCOC3)C2)ccc1OCCN1CCOCC1`, the “% Inhibition” value is reported as 0%.
For `N#Cc1ccc(CNc2cnc3ccccc3c2)o1`, the “% Inhibition” value was -12%.
For `CS(=O)(=O)N[C@@H](Cc1ccccc1)c1cccs1`, the “% Inhibition” value was 0%.
In the case of `Cn1ccc(NC(=O)C(=O)c2ccc(-c3ccccc3)cc2)n1`, the “% Inhibition” value is reported as 1%.
With `Fc1ccc(C2=C[C@@H](c3ccc(Cl)cc3)N3N=C(c4ccc(Cl)cc4)NC3=N2)cc1` the “% Inhibition” value was 99%.
`CN(C)C(=O)[C@H]1CCN(c2nc3cc(C(F)(F)F)ccc3s2)C1` was tested, and the “% Inhibition” value was -6%.
In the case of `CCCN(CC1CC1)C(=O)C1CCN(Cc2cccc3ccccc23)CC1`, the “% Inhibition” value is reported as -12%.
With `CCC(C)c1ccc(NC(=O)N2CC(c3ccccc3)C(c3ccc(Cl)cc3)=N2)cc1` (stereo unspecified) the “% Inhibition” value was 2%.
`O[C@@H](CNc1cc(-c2ccccc2)nc2ncnn12)COCC1CC1` was tested, and the “% Inhibition” value was -1%.
`O=C1CN(Cc2ccc(F)cc2)C(=O)N1[C@@H]1C[C@H]2CC[C@@H]1O2` was tested, and the “% Inhibition” value was 2%.
`Cc1nnc2ccc(S(=O)(=O)Nc3cc(F)cc(F)c3)cn12` was tested, and the “% Inhibition” value was -4%.
With `Cc1cc(CS(=O)(=O)[C@@H](C)C(=O)NCC(C)C)on1` the “% Inhibition” value was 1%.
In the case of `O=C1C(c2ccccc2)=NOC12CCCCC2`, the “% Inhibition” value is reported as -11%.
With `CC1=CCN(C(=O)Nc2nccs2)CC1` the “% Inhibition” value was 7%.
In the case of `O=C(N[C@@H](N1CCOCC1)C(Cl)(Cl)Cl)c1ccccc1Cl`, the “% Inhibition” value is reported as 5%.
For `Cc1nc2ncnn2c(N2CCc3nc(N)sc3C2)c1C`, the “% Inhibition” value was -5%.
For `Clc1ccc(COc2ccc(CNC3CCCCC3)cc2Br)cc1`, the “% Inhibition” value was -4%.
For `CCOC(=O)C1CN(S(=O)(=O)c2ccccc2)C1`, the “% Inhibition” value was -7%.
In the case of `COc1cccc(CC(=O)N2CCc3nc(N4CCC(C)CC4)nc(Oc4ccccc4OC)c3C2)c1`, the “% Inhibition” value is reported as 45%.
